Test results as given in paper PMC4336329 (PLoS ONE, 2015).
About 2,200 (0.71%) of roughly 310,000 compounds showed an effect of 50% or more. Effects have a minus sign here. This is one part of the list.

biological target: human ether-à-go-go-related gene (hERG) potassium channel (human, UniProt Q12809); assay: primary screen, population patch clamp on CHO cells stably expressing hERG
Sequence (Q12809 whole entry, looked up): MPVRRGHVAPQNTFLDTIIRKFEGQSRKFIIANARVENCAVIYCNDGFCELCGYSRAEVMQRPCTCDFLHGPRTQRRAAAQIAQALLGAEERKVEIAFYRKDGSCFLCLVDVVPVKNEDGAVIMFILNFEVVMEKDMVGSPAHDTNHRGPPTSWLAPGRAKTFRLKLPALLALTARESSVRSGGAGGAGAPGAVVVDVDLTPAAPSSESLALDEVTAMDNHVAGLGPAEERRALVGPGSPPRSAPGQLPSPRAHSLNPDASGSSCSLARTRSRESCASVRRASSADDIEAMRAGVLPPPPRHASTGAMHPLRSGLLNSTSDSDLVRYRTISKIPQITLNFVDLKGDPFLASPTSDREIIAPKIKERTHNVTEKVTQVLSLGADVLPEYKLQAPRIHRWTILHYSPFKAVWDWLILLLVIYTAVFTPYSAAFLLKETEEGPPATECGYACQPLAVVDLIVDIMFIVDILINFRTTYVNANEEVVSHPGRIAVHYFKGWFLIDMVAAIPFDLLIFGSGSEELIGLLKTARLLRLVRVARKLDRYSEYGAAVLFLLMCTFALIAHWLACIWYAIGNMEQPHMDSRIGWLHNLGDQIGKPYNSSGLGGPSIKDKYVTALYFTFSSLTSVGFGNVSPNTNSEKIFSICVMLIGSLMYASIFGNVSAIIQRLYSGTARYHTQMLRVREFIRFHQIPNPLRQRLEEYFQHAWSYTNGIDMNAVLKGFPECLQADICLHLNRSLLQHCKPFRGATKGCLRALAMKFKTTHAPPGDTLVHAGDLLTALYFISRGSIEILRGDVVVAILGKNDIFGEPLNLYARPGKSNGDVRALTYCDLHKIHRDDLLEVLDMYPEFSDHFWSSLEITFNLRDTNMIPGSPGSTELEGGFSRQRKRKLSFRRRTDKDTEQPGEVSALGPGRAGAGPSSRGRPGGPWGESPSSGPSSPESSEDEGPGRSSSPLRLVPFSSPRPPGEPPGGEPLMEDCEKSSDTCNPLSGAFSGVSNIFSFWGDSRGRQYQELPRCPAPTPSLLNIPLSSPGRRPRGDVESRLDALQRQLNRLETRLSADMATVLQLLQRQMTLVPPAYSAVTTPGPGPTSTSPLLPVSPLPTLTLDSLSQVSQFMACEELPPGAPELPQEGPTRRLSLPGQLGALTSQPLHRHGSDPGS

Going from `CSc1ccccc1NC(=O)C1=CC(c2cccs2)=NS(=O)(=O)N1C` to `O=c1[nH]c(-c2cccs2)nc2ccccc12`, the “hERG current change (%, negative = inhibition) at 1uM” value falls from 7.25% to 4.72%.

Going from `c1ccc(C2=NNC(=NCc3ccc4c(c3)OCO4)SC2)cc1` to `O=C(Cn1ccc2ccccc21)Nc1ccc2c(c1)OCO2`, the “hERG current change (%, negative = inhibition) at 1uM” value rises from -9.27% to 9.07%.

Compared with `O=C(NCc1ccc(-c2csnn2)cc1)c1cccs1`, `O=C(Nc1ccc(Cl)c(Cl)c1)Nc1nc(-c2ccccc2)cs1` is lower in “hERG current change (%, negative = inhibition) at 1uM” value: 3.72% for the first, 3.7% for the second.

First: Nc1cc(N)nc(SCC(=O)Nc2cccc(S(=O)(=O)N3CCCCC3)c2)n1
Second: COc1ccc(NS(=O)(=O)c2ccc(S(=O)(=O)N3CCCC3)cc2)cc1
The “hERG current change (%, negative = inhibition) at 1uM” value of the first is higher: 8.66% for the first, 6.34% for the second.

Compared with `CSCC[C@H](NC(=O)NC1CCCC1)C(=O)O`, `CC(=O)Nc1ccc(S(=O)(=O)N(C)CC(=O)OC(C)C(=O)NC2CCCCC2)cc1` (stereo not drawn) is lower in “hERG current change (%, negative = inhibition) at 1uM” value: 12.8% for the first, 8.91% for the second.

First: CCOc1cc(C(=O)Nc2cccc3ncccc23)cc(OCC)c1OCC
Second: CCOc1cc(Cl)c(S(=O)(=O)NCc2ccccn2)cc1Cl
The “hERG current change (%, negative = inhibition) at 1uM” value of the first is lower: -2.81% for the first, 4.71% for the second.

First: CCCNC(=O)c1ccc(OC)cc1OC
Second: CCCCn1c(-c2ccccc2)cnc1SCC(=O)NCCc1ccc(OC)c(OC)c1.Cl
The “hERG current change (%, negative = inhibition) at 1uM” value of the first is higher: 14.2% for the first, 2.66% for the second.

Compared with `COc1cc(/C=N/NS(=O)(=O)c2ccccc2)ccc1OS(=O)(=O)c1ccc(C)cc1`, `COc1ccc(/C(C)=N\NS(=O)(=O)c2ccccc2)cc1OC` is lower in “hERG current change (%, negative = inhibition) at 1uM” value: 10.5% for the first, -1.16% for the second.

Compared with `S=c1[nH]nc(-c2ccncc2)n1/N=C/c1ccccc1`, `Cc1ccccc1-c1n[nH]c(=S)n1C` is lower in “hERG current change (%, negative = inhibition) at 1uM” value: 16.5% for the first, 3.99% for the second.

First: O=S(=O)(NC1CCCCC1N1CCCCC1)c1ccc(Cl)cc1 (stereo not drawn)
Second: O=C(CC1C(=O)NCCN1Cc1ccc(F)cc1)NC1CCCCCCC1 (stereo not drawn)
The “hERG current change (%, negative = inhibition) at 1uM” value of the first is higher: 6.42% for the first, 5.24% for the second.

First: CSCCC1COC(c2cccs2)=N1 (stereo not drawn)
Second: CCCn1c(NCc2cccs2)nc2ccccc21
The “hERG current change (%, negative = inhibition) at 1uM” value of the first is higher: 13.4% for the first, -6.87% for the second.

Compared with `COc1cccc(-c2csc(N3CCN(CC(=O)NNC(=O)c4ccco4)CC3)n2)c1`, `COc1ccccc1CN1CCN(C(=O)c2ccco2)CC1.O=C(O)C(=O)O` is higher in “hERG current change (%, negative = inhibition) at 1uM” value: 4.94% for the first, 12.3% for the second.

First: O=C(O)Cn1c2ccccc2c2ccccc21
Second: O=C(CSc1cccc(C(F)(F)F)c1)NCc1ccccc1
The “hERG current change (%, negative = inhibition) at 1uM” value of the first is higher: 14.3% for the first, 10.8% for the second.

Compared with `CCOC(=O)c1nc2nc(-c3cccs3)cc(C(F)(F)F)n2n1`, `Cc1cc(C(=O)N(C)CC(=O)Nc2ccccc2C(F)(F)F)c(C)o1` is lower in “hERG current change (%, negative = inhibition) at 1uM” value: 21.1% for the first, -13.4% for the second.

Compared with `CSC(=NCCCN1CCOCC1)NS(=O)(=O)c1cccs1`, `c1ccc2sc(SN3CCOCC3)nc2c1` is higher in “hERG current change (%, negative = inhibition) at 1uM” value: 7.43% for the first, 9.64% for the second.

First: O=C(COC(=O)c1cccc(S(=O)(=O)NCc2ccccc2)c1)c1ccccc1
Second: O=C(Oc1ccccc1)c1ccc(COC(=O)c2cnccn2)cc1
The “hERG current change (%, negative = inhibition) at 1uM” value of the first is lower: 13.2% for the first, 14.9% for the second.

Compared with `CNC(=S)N1CCC(c2nc3ccccc3s2)CC1`, `CC1CCN(C(=S)NC(=O)c2cccc([N+](=O)[O-])c2)CC1` is higher in “hERG current change (%, negative = inhibition) at 1uM” value: -12.5% for the first, -8.07% for the second.

Going from `Cc1nn2c(-c3ccccn3)ccnc2c1Br` to `Nc1ccc2ncccc2c1N`, the “hERG current change (%, negative = inhibition) at 1uM” value falls from 15% to 11.1%.

First: CCCC(=O)Nc1ccc(NC(=O)C23CC4CC(CC(C4)C2)C3)cn1
Second: O=C(Nc1cnn(Cc2ccc(Cl)c(Cl)c2)c1)C12CC3CC(CC(C3)C1)C2
The “hERG current change (%, negative = inhibition) at 1uM” value of the first is higher: 11.7% for the first, 8.51% for the second.

Compared with `CC1CCN(Cc2nnc(-c3cccc(Br)c3)o2)CC1`, `Cc1ccc(-c2nc(CS(=O)(=O)CC(=O)NC3CCCCC3C)c(C)o2)cc1` (stereo not drawn) is higher in “hERG current change (%, negative = inhibition) at 1uM” value: 5.27% for the first, 12.3% for the second.

`CC(C)CN(C(=O)COC(=O)c1cnccn1)c1c(N)n(Cc2ccccc2)c(=O)[nH]c1=O` and `COCCn1c(N)c(N(Cc2ccccc2)C(=O)c2oc3ccccc3c2C)c(=O)[nH]c1=O` are the same in “hERG current change (%, negative = inhibition) at 1uM” value: 12.9% for the first, 12.9% for the second.

First: Cc1cc(/C=N/n2cnnc2)c(C)n1-c1ccc2c(c1)OCO2
Second: Cc1cc(S(=O)(=O)N2CCN(Cc3ccc4c(c3)OCO4)CC2)cc(C)c1N1CCCC1=O
The “hERG current change (%, negative = inhibition) at 1uM” value of the first is lower: -2.71% for the first, 3.64% for the second.

Going from `COc1cc(NC(=O)C2CCCN(S(=O)(=O)c3cccc4nsnc34)C2)cc(OC)c1` (stereo not drawn) to `COc1ccc(OC)c(CN2CCN(C(=O)c3ccc(NS(=O)(=O)c4cccc([N+](=O)[O-])c4)cc3)CC2)c1`, the “hERG current change (%, negative = inhibition) at 1uM” value falls from 8.96% to -4.89%.

Compared with `CC(C)(C)NC(=O)COC(=O)c1ccc(Cl)c(S(N)(=O)=O)c1`, `Cc1ccc(S(=O)(=O)N(C)CCCC(=O)NC(C)(C)CO)cc1` is higher in “hERG current change (%, negative = inhibition) at 1uM” value: 5.96% for the first, 10.2% for the second.

First: COc1ccccc1N(C(=O)c1cncc(Br)c1)c1nc(-c2ccc(C)cc2)cs1
Second: Cc1ccc(C)c(NC(=O)c2nc(-c3ccccc3)n(-c3ccccc3)n2)c1
The “hERG current change (%, negative = inhibition) at 1uM” value of the first is higher: 6.23% for the first, 4.53% for the second.

Going from `CC(NC(=O)c1ccco1)c1ccc(-n2ccnc2)cc1` (stereo not drawn) to `CCN(CC)P(=O)(Nc1ccc(C)cc1Br)c1ccc(N(C)C)cc1NC(=O)c1ccco1` (stereo not drawn), the “hERG current change (%, negative = inhibition) at 1uM” value rises from -7.74% to 7.52%.

First: CC(C)(C)c1nc(NC(=O)Nc2ccccc2)sc1Br
Second: COc1ccccc1OCCC(=O)OCC(=O)Nc1ccc(Br)cc1F
The “hERG current change (%, negative = inhibition) at 1uM” value of the first is higher: 14.9% for the first, -4.64% for the second.

First: Cc1nnc(SCC(=O)c2c(N)n(C)c(=O)n(C)c2=O)[nH]c1=O
Second: Cc1cc(SCC(=O)c2ccc(Cl)cc2)nc(=O)[nH]1
The “hERG current change (%, negative = inhibition) at 1uM” value of the first is higher: 17.7% for the first, 9.85% for the second.

First: Cc1ccc2nc3c(cc(C(=O)NC4CCS(=O)(=O)C4)n3Cc3ccccc3)c(=O)n2c1 (stereo not drawn)
Second: O=C(Cn1cc(C(F)(F)F)cc(Cl)c1=O)NC1CCS(=O)(=O)C1 (stereo not drawn)
The “hERG current change (%, negative = inhibition) at 1uM” value of the first is higher: 21.4% for the first, 3.01% for the second.

Going from `O=C(NNC(=O)c1ccccc1[N+](=O)[O-])c1ccc(NS(=O)(=O)c2cccs2)cc1` to `O=C(NNC(=O)c1ccc([N+](=O)[O-])cc1)c1ccc(F)cc1`, the “hERG current change (%, negative = inhibition) at 1uM” value falls from 13.9% to 13.8%.

Compared with `COc1cc(CNCc2ccccn2)ccc1OCc1ccc(Cl)c(Cl)c1.Cl`, `COc1ccc(CCN(Cc2cc3cccc(C)c3n3nnnc23)C(=O)c2ccncc2)cc1OC` is higher in “hERG current change (%, negative = inhibition) at 1uM” value: -5% for the first, 1.24% for the second.

Going from `COc1ccc(C(C(=O)NC2CCCC2)N(C(=O)c2csnn2)C2CCCC2)cc1` (stereo not drawn) to `COc1ccc(CC(=O)NCCS(=O)(=O)N2CCN(c3ccccc3)CC2)cc1`, the “hERG current change (%, negative = inhibition) at 1uM” value falls from 9.63% to 6.88%.

First: COc1cc(/C=C(\C#N)C(=O)c2c[nH]c3ccccc23)cc(OC)c1O
Second: COc1cc(C(CC(=O)N2CCCC2)c2c(OC)cc(OC)c3c(-c4ccccc4)cc(=O)oc23)cc(OC)c1OC (stereo not drawn)
The “hERG current change (%, negative = inhibition) at 1uM” value of the first is lower: 10.1% for the first, 11.5% for the second.

First: CCCC(=O)Nc1nnc(-c2ccc(Cl)s2)o1
Second: COC(=O)c1ccc(C)c(NC(=O)CSc2nnc3ccccn23)c1
The “hERG current change (%, negative = inhibition) at 1uM” value of the first is higher: 11.5% for the first, 4.75% for the second.

First: O=C(O)c1ccc(N/N=C/c2cn(Cc3ccc(F)cc3)c3ccccc23)cc1
Second: CCOC(=O)c1ccc(N2C(=O)CC(SCC(=O)Nc3ccc(S(N)(=O)=O)cc3)C2=O)cc1 (stereo not drawn)
The “hERG current change (%, negative = inhibition) at 1uM” value of the first is lower: 10.6% for the first, 16.7% for the second.

First: O=c1[nH][nH]c(C(F)(F)F)c1C=Nc1ccccc1Cl
Second: N#C/C(C(N)=O)=C1/CCCN1Cc1ccccc1
The “hERG current change (%, negative = inhibition) at 1uM” value of the first is higher: 11.4% for the first, 3.5% for the second.

Compared with `C[C@]12CC[C@@H]3c4ccc(O)cc4CC[C@H]3[C@@H]1C[C@@H](O)[C@@H]2O`, `COc1ccccc1OCc1cc(C(=O)N2CC3C[C@@H]4CC2C[C@H](C3)C4)no1` is higher in “hERG current change (%, negative = inhibition) at 1uM” value: 1.94% for the first, 8.97% for the second.

Compared with `COc1ccc2nc(N=NC3=C(O)CC(C)(C)CC3=O)sc2c1`, `CCOC(=O)c1[nH]c2c(c1C)C(=O)CC(c1ccc(F)cc1)C2` (stereo not drawn) is higher in “hERG current change (%, negative = inhibition) at 1uM” value: 7.73% for the first, 9.28% for the second.

Compared with `NNC(=O)c1ccc(Cl)cc1`, `Cc1ccc(CC(=O)NCC(C)C)cc1` is higher in “hERG current change (%, negative = inhibition) at 1uM” value: 7.3% for the first, 8.37% for the second.

First: O=C(NCCC(=O)N1CCN(c2cccc(Cl)c2)CC1)c1ccc(Br)cc1
Second: O=C(N/C(=C\c1ccccc1)C(=O)N1CCOCC1)c1cccc(Br)c1
The “hERG current change (%, negative = inhibition) at 1uM” value of the first is lower: 3.83% for the first, 18.8% for the second.

First: Cn1ncc(Cl)c1C(=O)NC(=S)Nc1sc2c(c1C#N)CCCCC2
Second: COC(=O)c1[nH]c2ccccc2c1NC(=O)CN1CCN(C/C=C/c2ccccc2)CC1
The “hERG current change (%, negative = inhibition) at 1uM” value of the first is higher: 14.8% for the first, -84.4% for the second.

Going from `c1ccc2c(c1)OCCOCCOCCO2` to `O=C(NCCc1c[nH]c2ccccc12)C(=O)NCC1OCCCN1S(=O)(=O)c1cccs1` (stereo not drawn), the “hERG current change (%, negative = inhibition) at 1uM” value falls from 13.2% to 5.02%.

First: O=C(COc1ccc(F)cc1)Nc1nccs1
Second: CCOC(=O)NC(=O)/C(C#N)=C/c1ccc(N(C)C)cc1
The “hERG current change (%, negative = inhibition) at 1uM” value of the first is lower: 6.39% for the first, 15.2% for the second.

Going from `CC(C)C1N=C2c3ccccc3N=C(SCc3cc(=O)n4cc(Cl)ccc4n3)N2C1=O` (stereo not drawn) to `Cc1ccc2cc(C(c3nnnn3C3CCCC3)N3CCN(c4ccc(F)cc4)CC3)c(=O)[nH]c2c1` (stereo not drawn), the “hERG current change (%, negative = inhibition) at 1uM” value rises from -24% to 1.78%.

Compared with `CCOC(=O)c1c(CN2CCN(CCO)CC2)n(-c2ccccc2)c2cc(Br)c(O)cc12`, `COc1cc(NS(C)(=O)=O)cc(OC)c1OC` is higher in “hERG current change (%, negative = inhibition) at 1uM” value: -3.86% for the first, 12.1% for the second.
